Screen size: about 310,000 compounds; about 2,200 (0.71%) showed an effect of 50% or more. The effect is printed as a negative number. Some of the results follow.

Sequence of human ether-à-go-go-related gene (hERG) potassium channel (Q12809 whole entry, looked up): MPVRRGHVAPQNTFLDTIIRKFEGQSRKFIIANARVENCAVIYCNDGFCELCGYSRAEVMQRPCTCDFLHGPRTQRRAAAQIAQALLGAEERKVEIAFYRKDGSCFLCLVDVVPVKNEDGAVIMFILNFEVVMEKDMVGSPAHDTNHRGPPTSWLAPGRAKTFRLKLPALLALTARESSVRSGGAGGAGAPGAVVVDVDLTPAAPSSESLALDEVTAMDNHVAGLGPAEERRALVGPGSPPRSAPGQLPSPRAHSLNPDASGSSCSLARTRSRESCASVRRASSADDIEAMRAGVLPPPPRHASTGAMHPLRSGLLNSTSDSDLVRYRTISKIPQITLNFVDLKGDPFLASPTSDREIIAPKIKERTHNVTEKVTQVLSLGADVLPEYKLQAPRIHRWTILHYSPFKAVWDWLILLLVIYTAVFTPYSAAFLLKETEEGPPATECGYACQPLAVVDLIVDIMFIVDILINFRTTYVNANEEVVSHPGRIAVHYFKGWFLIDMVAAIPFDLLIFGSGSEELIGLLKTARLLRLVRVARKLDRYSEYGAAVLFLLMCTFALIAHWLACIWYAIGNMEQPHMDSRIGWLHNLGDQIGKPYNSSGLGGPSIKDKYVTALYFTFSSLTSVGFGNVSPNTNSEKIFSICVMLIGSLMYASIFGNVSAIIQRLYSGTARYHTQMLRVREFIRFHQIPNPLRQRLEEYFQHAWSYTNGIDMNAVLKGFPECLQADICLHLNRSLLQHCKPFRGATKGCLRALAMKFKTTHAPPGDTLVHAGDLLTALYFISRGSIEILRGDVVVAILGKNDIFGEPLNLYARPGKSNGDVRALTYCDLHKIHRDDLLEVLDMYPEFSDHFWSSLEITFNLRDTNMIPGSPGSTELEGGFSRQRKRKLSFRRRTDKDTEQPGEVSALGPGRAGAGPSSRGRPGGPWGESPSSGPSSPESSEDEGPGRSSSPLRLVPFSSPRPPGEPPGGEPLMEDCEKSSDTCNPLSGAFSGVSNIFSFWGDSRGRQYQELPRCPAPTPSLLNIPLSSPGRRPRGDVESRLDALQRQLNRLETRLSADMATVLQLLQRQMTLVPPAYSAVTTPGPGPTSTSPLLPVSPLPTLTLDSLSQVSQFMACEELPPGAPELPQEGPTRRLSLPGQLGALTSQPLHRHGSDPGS

The experiment addresses human ether-à-go-go-related gene (hERG) potassium channel (human, UniProt Q12809). Nature of the experiment: primary screen, population patch clamp on CHO cells stably expressing hERG.
In the case of `O=C(NC1CCCCC1)c1c(O)nc2sccn2c1=O`, the “hERG current change (%, negative = inhibition) at 1uM” value was -11.2%.

Consider `COc1ccccc1NC(=O)c1ccc(NC(=O)COC(=O)C2CC2C)cc1` (stereo not drawn), for which the “hERG current change (%, negative = inhibition) at 1uM” value is reported as 7.97%.

For the compound `CN1CCN(CCCNC(=O)c2ccc3c(Cl)c4c(nc3c2)CCCC4)CC1`, the “hERG current change (%, negative = inhibition) at 1uM” value was 8.94%.

For the compound `CCCn1nc(C(=O)OCn2nnc3ccccc3c2=O)c2ccccc2c1=O`, the “hERG current change (%, negative = inhibition) at 1uM” value is 15.8%.

On to `CCC(=O)N1CCCC(C(=O)c2ccc(-c3ccccc3)cc2)C1` (stereo not drawn), for which the “hERG current change (%, negative = inhibition) at 1uM” value is reported as 15.9%.

In the case of `Cc1ccc2c(c1)NC(=O)c1cccc([N+](=O)[O-])c1CO2`, the “hERG current change (%, negative = inhibition) at 1uM” value was found to be 7.19%.

In the case of `Nc1nnc(CCN2CCCCC2)s1`, the “hERG current change (%, negative = inhibition) at 1uM” value turned out to be 16.8%.

As to `COc1ccc(N2C(=O)CC3(CCCC3)CC2=O)cc1`, the “hERG current change (%, negative = inhibition) at 1uM” value is 13.4%.

For `CCCCCCc1ccc(OC(=O)c2ccncc2)cc1`, the “hERG current change (%, negative = inhibition) at 1uM” value is on record as 18.2%.

With `COC(=O)Cc1ccc(NC(=S)N2CCN(c3ccccn3)CC2)cc1`, the “hERG current change (%, negative = inhibition) at 1uM” value is 10.6%.

As for `O=C(Nc1ccnn1C1CCN(C/C=C/c2ccccc2)CC1)c1cccc(F)c1`, the “hERG current change (%, negative = inhibition) at 1uM” value is reported as -58.5%.

As to `Cc1ccc(NS(=O)(=O)c2ccc(C(=O)N3CCCCCC3)cc2)cc1`, the “hERG current change (%, negative = inhibition) at 1uM” value worked out at 3.7%.

Take `COc1ccc(C(=O)NCCNC(=O)c2cnccn2)cc1`: the “hERG current change (%, negative = inhibition) at 1uM” value was 12.3%.

Take `Cc1cc(/C=C2/C(=O)N(C)C(=S)N2C)ccc1N1CCCC1`: the “hERG current change (%, negative = inhibition) at 1uM” value is given as 1.15%.

With `CCc1ccc(N/C(SCc2ccccc2C)=C(/C#N)C(=O)NCc2ccco2)cc1`, the “hERG current change (%, negative = inhibition) at 1uM” value was -0.648%.

On to `CCOc1ccc(NC(=O)NC2(C(=O)NCc3ccco3)CCCCC2)cc1`, for which the “hERG current change (%, negative = inhibition) at 1uM” value was 18.3%.

Take `O=C(NC1CCCc2c1cnn2-c1cc(F)cc(F)c1)c1ccncc1` (stereo not drawn): the “hERG current change (%, negative = inhibition) at 1uM” value is -25.3%.

As for `COc1ccc(-c2nc3ccccc3c(=O)n2CCCN2CCOCC2)cc1`, the “hERG current change (%, negative = inhibition) at 1uM” value is reported as 9.84%.

In the case of `COc1ccc(-c2nc(N)nc(C)c2-c2ccc(Cl)cc2)c(O)c1`, the “hERG current change (%, negative = inhibition) at 1uM” value turned out to be 18.2%.

`CC1CC1C(=O)Nc1ccc(-c2ccccc2)cc1` (stereo not drawn): the “hERG current change (%, negative = inhibition) at 1uM” value came out at 10%.

On to `C=C1CCN(CC(=O)OC)S(=O)(=O)c2ccccc21`, for which the “hERG current change (%, negative = inhibition) at 1uM” value is listed as 10.9%.

With `CCCc1nnc(NC(=O)CCC(=O)N2CCC3(CC2)OCCO3)s1`, the “hERG current change (%, negative = inhibition) at 1uM” value was 11.3%.

On to `CC1(C)NS(=O)(=O)Oc2ccccc21`, for which the “hERG current change (%, negative = inhibition) at 1uM” value was 18.6%.

For the compound `Cl.NCCNc1ccc([N+](=O)[O-])cc1`, the “hERG current change (%, negative = inhibition) at 1uM” value is on record as 1.2%.

On to `Cc1c(N=C2NN=C(c3c[nH]c4ccccc34)CS2)c(=O)n(-c2ccccc2)n1C`, for which the “hERG current change (%, negative = inhibition) at 1uM” value amounted to 9.41%.

Turning to `COc1ccc(C2/C=C\CN(CC(C)(C)C)CC(=O)N2Cc2ccc(F)cc2)cc1` (stereo not drawn), the “hERG current change (%, negative = inhibition) at 1uM” value is listed as 17%.

Turning to `COc1cccc(NC(=O)CCc2nc(-c3cccs3)no2)c1`, the “hERG current change (%, negative = inhibition) at 1uM” value is recorded as 13.6%.

On to `Cc1ccc(C(=O)NCCCn2ccnc2)o1`, for which the “hERG current change (%, negative = inhibition) at 1uM” value is 24.9%.

As to `Cc1cc(OCC(=O)c2cccc(C(F)(F)F)c2)n2cnnc2n1`, the “hERG current change (%, negative = inhibition) at 1uM” value is reported as -4.84%.

On to `COc1ccccc1N1CCN(C2CCN(C(=O)c3cccs3)CC2)CC1`, for which the “hERG current change (%, negative = inhibition) at 1uM” value was determined as 0.796%.

As to `COC(=O)CC1C(=O)NCCN1C(=S)Nc1cccc(C(F)(F)F)c1` (stereo not drawn), the “hERG current change (%, negative = inhibition) at 1uM” value is reported as 4.72%.

On to `Cc1ccccc1OC1C(=O)N(CC2CCCO2)C1c1ccc2c(c1)OCO2` (stereo not drawn), for which the “hERG current change (%, negative = inhibition) at 1uM” value worked out at 11.7%.

With `N#Cc1c(-c2ccccc2)ccn(Cc2ccccc2Cl)c1=O`, the “hERG current change (%, negative = inhibition) at 1uM” value stood at 0.439%.

For the compound `CCOC1=NN(c2ncc(C(F)(F)F)cc2Cl)C(=O)C1`, the “hERG current change (%, negative = inhibition) at 1uM” value is reported as 8.65%.

`FC(F)(F)c1cccc(N2CCN(c3ccc4nnc(-c5ccccc5)n4n3)CC2)c1`: the “hERG current change (%, negative = inhibition) at 1uM” value is -13.4%.

Regarding `C=C1C[C@H](O)[C@@H]2[C@H](OC(=O)[C@H]2C)[C@H]2[C@H](C)[C@@H](O)C[C@@H]12`, the “hERG current change (%, negative = inhibition) at 1uM” value came out at 12.9%.

On to `CCOCCOCCC(C(=O)O)P(=O)(c1ccccc1)c1ccccc1` (stereo not drawn), for which the “hERG current change (%, negative = inhibition) at 1uM” value is given as -8.93%.

As to `CSc1ccc(CNC2CC2)cc1.Cl`, the “hERG current change (%, negative = inhibition) at 1uM” value is given as -0.741%.

Turning to `CCN(CC)C(=O)c1ccccc1NC(=O)c1cccc(S(=O)(=O)N(CC)CC)c1`, the “hERG current change (%, negative = inhibition) at 1uM” value is listed as 5.09%.

In the case of `Cl.Fc1ccc(C(OCCN2CCCC2)c2ccc(Br)cc2)cc1` (stereo not drawn), the “hERG current change (%, negative = inhibition) at 1uM” value is -66%.

As to `CCc1cccc(N=c2c([N+](=O)[O-])nn(-c3ccc(Cl)cc3)n2O)c1`, the “hERG current change (%, negative = inhibition) at 1uM” value worked out at 1.94%.

Consider `Cc1ccc(S(=O)(=O)N2CCN(C(C)C)CC2)cc1`, for which the “hERG current change (%, negative = inhibition) at 1uM” value stood at 16.2%.

On to `O=C(c1ccc(CNS(=O)(=O)c2ccc(Br)cc2)cc1)N1CCCCCC1`, for which the “hERG current change (%, negative = inhibition) at 1uM” value came to 18.1%.

With `O=C(CN(Cc1ccc2c(c1)OCO2)C(=O)CNC(=O)c1ccco1)NC1CCCCC1`, the “hERG current change (%, negative = inhibition) at 1uM” value was 7.03%.

As for `CN(C)CCCNC(=S)NCc1ccc(Cl)cc1`, the “hERG current change (%, negative = inhibition) at 1uM” value is on record as -3.81%.

Source of the values: article PMC4336329 (PLoS ONE, 2015).
